Where “and” joins values, the source holds several entries; their conditions need not be identical. Equal entries are not always repeated. About 5,000 (1.2%) of roughly 410,000 compounds were called active. The shares of active, inactive and inconclusive entries below differ from those in the screen. Calls follow the shape of the dose curve; as a rule, active = well fitted inhibition curve with a large enough effect; inconclusive = small, poorly fitted or top-dose-only effect; inactive = no such curve, though single readings can be large or run the other way. A potency beside an inconclusive call is a rough fit, not a confirmed value.
Test: qHTS for Inhibitors of TGF-b; also: nearly all actives have a fitted effect of over 65% in size
Conditions: HepG2 CAGA-GFP TGF-b/SMAD3 reporter, GFP fluorescence, 18 h, TGF-beta stimulated, 500 pg/mL final; series mostly up to 46.1 µM; activity, negative = inhibition: at the top concentration
Outline: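 Per well, imaged GFP fluorescence of HEPG2 CAGA-GFP cells gives the signal; cells get compound, then TGF-beta (500 pg/mL final), 18 h at 37 degrees C; %Activity versus -TGF-beta and +DMSO controls.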
% is scaled to controls: 0 for no effect and ±100 for the full control effect; potency is read from the fitted curve at half-maximal effect; tags tell the direction and shape of the fitted curve.

Row | Structure (SMILES) | Potency | activity, negative = inhibition
1 | CCCCn1cnc2cc(NCc3ccccc3Cl)ccc21 | inconclusive: 35.5 µM [inhibitor, single point] | –
2 | Cc1ccc(NC(=O)C(=O)NCC(c2cccnc2)N2CCN(Cc3ccccc3)CC2)cc1F (configuration not stated) | – | inactive: 6.74%
3 | CCCSCCCNC(=O)C1CCN(c2nc3ccccc3nc2C(F)(F)F)CC1 | inconclusive: 1.58 µM [inhibitor, partial curve] | –
4 | CCN(CC)CCCN=C1N[C@@H](c2cccc(F)c2)C(C(=O)OC)=C(C)N1Cc1ccccc1 | inconclusive: 35.5 µM [inhibitor, single point] | –
5 | CC(C)C[C@@H]1NC(=O)[C@H](C(C)C)NC(=O)c2cc([N+](=O)[O-])cc(I)c2NCC[C@@H](C(N)=O)NC1=O | inconclusive: 1.26 µM [inhibitor, partial curve, poor fit] | –
6 | Cn1c(-c2ccccc2F)cc2onc(-c3ccccc3)c2c1=O | inconclusive: 10 µM [inhibitor, partial curve, poor fit] | –
7 | COc1ccccc1CNS(=O)(=O)N(C)C | inconclusive: 0.891 µM [inhibitor, full curve] | –
8 | O=C(CCl)N(C1CCCC1)C1CCS(=O)(=O)C1 (configuration not stated) | inconclusive: 35.5 µM [inhibitor, single point] | –
9 | O=S(=O)(NCCc1csc2nc(-c3ccccc3)nn12)c1cc(F)ccc1F | inconclusive: 0.0891 µM [inhibitor, full curve, poor fit] | –
10 | Cn1c(N)c(C(=O)CSc2nn(-c3ccccc3)c(=S)s2)c(=O)n(C)c1=O | inconclusive: 0.891 µM [inhibitor, full curve] | –
11 | CC(=O)N1CCCc2cc(S(=O)(=O)N3CCCC(C(=O)N4CCN(c5ccccc5)CC4)C3)ccc21 (configuration not stated) | inconclusive: 398 nM [inhibitor, full curve, poor fit] and inconclusive: 8.91 µM [inhibitor, partial curve, poor fit] | –
12 | COc1ccc(Nc2nc(N)nc(CN3CCC(Cc4ccccc4)CC3)n2)cc1 | inconclusive: 31.6 µM [inhibitor, single point] | –
13 | Cc1cc(C)c2c(CC(=O)Nc3ccc(S(=O)(=O)Nc4nc(C)cc(C)n4)cc3)coc2c1 | – | inactive: 0.325%
14 | CC(C)(C)c1csc(N(CCC#N)CCC#N)n1 | – | inactive: 0.418%
15 | COc1ccc(CCNCc2ccc(-c3ccccc3)cc2)cc1OC | inconclusive: 35.5 µM [inhibitor, single point] | –
16 | Cc1ccc(NC(=O)c2ccccc2O)cc1 | inconclusive: 14.1 µM [inhibitor, single point] | –
17 | CCOC(=O)C1CCN(Cc2ccc(O)c3ncccc23)CC1 | inconclusive: 35.5 µM [inhibitor, single point] | –
18 | Cc1cccc(NC(=O)c2nc[nH]c2C(=O)NCCCCCNC(=O)OC(C)(C)C)c1 | inconclusive: 31.6 µM [inhibitor, single point] | –
19 | CC1CC(C)CN(C(=O)CSc2ccsc2[N+](=O)[O-])C1 (configuration not stated) | inconclusive: 35.5 µM [inhibitor, single point] | –
20 | CN(C)c1ccc(C(=O)Nc2cccc(S(=O)(=O)NC3=NCCCCC3)c2)cc1 | – | inactive: 1.4%
21 | CC(C)CC1C(=O)N(Cc2cn(CCC3OCCO3)nn2)CCS(=O)(=O)N1Cc1ccc(-c2cccc(N(C)C)c2)cc1 (configuration not stated) | – | inactive: -18.8%
22 | CC(C)C[C@@H](CN1CCCC1CN1C(=S)NC[C@@H]1Cc1ccc(O)cc1)N1C[C@H](Cc2ccc(O)cc2)N(CCc2ccccc2)C1=S (some centres not stated) | active: 5.62 µM | –
23 | COc1cccc(NC(=O)N(C)C[C@H]2Oc3cc(Br)ccc3S(=O)(=O)N([C@H](C)CO)C[C@H]2C)c1 | – | inactive: 3.1%

Row | Structure (SMILES) | Potency | activity, negative = inhibition
24 | CCCCCCCn1c(=N)n(CC(O)c2ccco2)c2ccccc21 (configuration not stated) | inconclusive: 22.4 µM [inhibitor, single point] | –
25 | Cc1ccc(N(C(=O)CNC(=O)c2ccco2)C(C(=O)NCC2CCCO2)c2ccccc2)cc1C (configuration not stated) | – | inactive: -6.47%
26 | CCOc1ccc(NC(=O)Cn2c(=O)n(CCCCCC(=O)NCc3ccccc3)c(=O)c3sccc32)cc1 | – | inactive: -1.52%
27 | O=C1C(Cc2ccccc2)Nc2ncnc(N3CCCCC3)c2N1Cc1ccc(Br)cc1 (configuration not stated) | inconclusive: 35.5 µM [inhibitor, single point] and inconclusive: 5.62 µM [inhibitor, single point] | –
28 | CC(=O)Nc1ccc(NC(=O)C/C(C)=N/NC(=O)c2cccc3ccccc23)cc1 | – | inactive: 19.3%
29 | CCOc1cc2c(cc1OCC)CN(CC(=O)Nc1ccccc1C(=O)NC1CC1)CC2 | – | inactive: 5.54%
30 | O=C(Cc1cc(C(=O)O)c2ccccc2n1)Nc1ccccc1 | inconclusive: 35.5 µM [inhibitor, single point] | –
31 | CCc1ccc(C2CC(=O)c3c([nH]c(C(=O)OC4CCCC4)c3C)C2)cc1 (configuration not stated) | – | inactive: 7.68%
32 | CC1CCN(CC(=O)Nc2ccc(S(=O)(=O)N3CCCCC3)cc2)CC1 | – | inactive: 1.73%
33 | CCCn1c(C)cc(C(=O)COC(=O)CN=C2NS(=O)(=O)c3ccccc32)c1C | inconclusive: 4.47 µM [inhibitor, partial curve, poor fit] | –
34 | O=C(Nc1nc2c(F)cc(F)cc2s1)c1ccccn1 | inconclusive: 3.55 µM [inhibitor, partial curve, poor fit] | –
35 | CCc1ccccc1NS(=O)(=O)c1ccc2[nH]cc(C(=O)N(CC)Cc3ccccc3)c(=O)c2c1 | inconclusive: 35.5 µM [inhibitor, single point] | –
36 | C=CCOc1ccc(C(=O)O)cc1Cl | inconclusive: 0.447 µM [inhibitor, partial curve, poor fit] | –
37 | CCOc1cc2c(C#N)c(N(CC)CC)nc(N)c2c(N)n1 | inconclusive: 5.62 µM [inhibitor, single point] | –
38 | CCOC(=O)c1[nH]cnc1C(=O)NC1CCN(C(=O)OC(C)(C)C)CC1 | inconclusive: 15.8 µM [inhibitor, single point] | –
39 | Cc1ccc(C)c(N2CCN(S(=O)(=O)c3ccc4c(c3)C(C(C)C)C(=O)N4)CC2)c1 (configuration not stated) | active: 15.8 µM | –
40 | Cc1oc(-c2cccc(Cl)c2)nc1CN1CCCC(C(=O)NCCCN2CCOCC2)C1 (configuration not stated) | inconclusive: 5.62 µM [inhibitor, single point] | –
41 | C/C(=N\NS(=O)(=O)c1ccc(Cl)c([N+](=O)[O-])c1)c1cc2ccccc2o1 | – | inactive: 7.02%
42 | O=C(C1=C[C@@H](c2ccc(C(F)(F)F)cc2)C[C@@H](OCCCCO)O1)N1CCN(Cc2ccc3c(c2)OCO3)CC1 | – | inactive: -39.7%
43 | CCOc1ccc(-c2ccc(/C=C3/C(=N)N4C(C)=CSC4=NC3=O)o2)c([N+](=O)[O-])c1 | – | inactive: -28.8%
44 | COc1ccc(/C=C/C(=O)NC(C)(C)C)cc1S(=O)(=O)N1CCOCC1 | inconclusive: 14.1 µM [inhibitor, single point] | –
45 | O=C(CC(=O)c1c(F)cccc1Cl)c1ccccc1O | inconclusive: 35.5 µM [inhibitor, single point] | –
46 | COC(=O)C1=C(C)N(C)C(=O)NC1c1ccccc1 (configuration not stated) | – | inactive: -1.44%

Row | Structure (SMILES) | Potency | activity, negative = inhibition
47 | CN(CCNC(=O)c1cc2c(=O)n(C)c3ccccc3c2n1C)Cc1ccccc1 | inconclusive: 35.5 µM [inhibitor, single point] | –
48 | Cc1nn(CC(=O)Nc2ccc(OC(F)(F)F)cc2)c(=O)c2c(C)n(-c3ccc(Cl)cc3)nc12 | – | inactive: -5.69%
49 | CCn1c2ccccc2c2cc(NC(C)=O)ccc21 | – | inactive: -9.55%
50 | O=C1C=C(c2ccnc3cc(Cl)ccc23)C[C@@H](c2ccc3c(c2)OCO3)C1 | inconclusive: 0.631 µM [inhibitor, full curve, poor fit] | –
51 | CCC(=O)Nc1ccc(C(=O)Cn2ncc(Cl)c(Cl)c2=O)cc1 | inconclusive: 22.4 µM [inhibitor, single point] | –
52 | COc1ccc(-c2[nH]c3ccccc3c2SCCN)cc1 | – | inactive: -22%
53 | CC(=O)c1c(C)[nH]c(C(=O)OCC(=O)NCc2ccc(Cl)cc2)c1C | – | inactive: -25.9%
54 | Cc1ccccc1Nc1nnc(SCC(=O)NC(=O)NCc2ccco2)s1 | – | inactive: -7.12%
55 | Cc1ccc(S(=O)(=O)c2nnn(-c3ccc(F)c(Cl)c3)c2N)cc1 | inconclusive: 22.4 µM [inhibitor, single point] | –
56 | COc1cccc(-c2nn(-c3ccccc3)cc2CN2CCCO2)c1 | – | inactive: -1.37%
57 | COCc1cc(=O)[nH]c(-c2ccccc2)n1 | – | inactive: 7.39%
58 | COC(=O)c1ccccc1NC(=O)C1=CC(c2cccs2)=NS(=O)(=O)N1C | inconclusive: 20 µM [inhibitor, partial curve, poor fit] | –
59 | O=C(CCCOc1ccccc1)Nc1cccc(S(=O)(=O)N2CCCCCC2)c1 | inconclusive: 12.6 µM [inhibitor, single point] | –
60 | COc1ccc(NC(=O)CCNS(=O)(=O)c2ccc3c(c2)CCCC(=O)N3)cc1Cl | – | inactive: 2.37%
61 | CCOC(=O)c1cc(C(=O)OCC)c(=O)[nH]c1SCc1ccccc1 | inconclusive: 3.16 µM [inhibitor, single point] | –
62 | CCCCn1c(N)c(N(C)C(=O)c2ccc(-n3cccn3)cc2)c(=O)[nH]c1=O | – | inactive: 0.0183%
63 | CC(=O)NCc1ccc(C(=O)CCl)cc1 | inconclusive: 15.8 µM [inhibitor, single point] | –
64 | CCc1noc(C)c1C(=O)N(C)CC(=O)Nc1ccc(F)c(F)c1F | – | inactive: 0.953%
65 | CCN(C(=O)CSc1ccc(S(=O)(=O)N2CCOCC2)cn1)c1ccccc1 | – | inactive: 6.34%
66 | NC(CCc1ccccc1)c1csc(NC(=O)Nc2cccc(C(F)(F)F)c2)n1 (configuration not stated) | inconclusive: 35.5 µM [inhibitor, single point] | –
67 | CCC(=O)N1CCc2cc(Br)cc(S(=O)(=O)CCC(=O)N3CCN(c4cccc(C)c4)C(C)C3)c21 (configuration not stated) | inconclusive: 14.1 µM [inhibitor, partial curve, poor fit] | –
